# According to patent US20120251557A1 (VERENIGING VOOR CHRISTELIJK HOGER ONDERWIJS …, published 2012):
# B1: MGL-Fc (extracellular part of human MGL, amino acids 61-289, fused at the C-terminus to human IgG1-Fc) (Fc fusion, UniProt Q8IUN9-2 61-289, looked up)
# chain: QNSKFQRDLVTLRTDFSNFTSNTVAEIQALTSQGSSLEETIASLKAEVEGFKQERQAVHSEMLLRVQQLVQDLKKLTCQVATLNNNGEEASTEGTCCPVNWVEHQDSCYWFSHSGMSWAEAEKYCQLKNAHLVVINSREEQNFVQKYLGSAYTWMGLSDPEGAWKWVDGTDYATGFQNWKPGQPDDWQGHGLGGGEDCAHFHPDGRWNDDVCQRPYHWVCEAGLGQTSQ[skipping human IgG1 Fc]
# notes: range 61-289;domain: IgG1-Fc; Produced in CHO cells; The numbering 61-289 belongs to the 292-residue form of MGL, so it may not fit the canonical UniProt entry; also called MGL-human Fc; human MGL-Fc
# Key:
# [1] = biological target: T1, secreted tumor-associated MUC1 from the supernatant of ZR75 tumor cells (UniProt P15941 24-1097, limits assumed); experiment: ELISA on coated MUC1 from ZR75 supernatant; inhibited by EGTA
# T1 construct: Coated on ELISA plates, or loaded on beads through MUC1 antibodies; also called secreted MUC1 from tumor cell line ZR75
# From the text: Example 2, FIG. 8. MGL-Fc detects secreted MUC1 from tumor cell line ZR75. FIG. 8A, MUC1 was harvested out of the supernatant of cultured ZR75 tumor cells and coated on ELISA plates. Both MGLFc and DC-SIGNFc were used to look for carbohydrate-binding epitopes expressed on tumor-associated MUC1. […] Furthermore, EGTA, which inhibits lectin binding to carbohydrates, illustrates that the recognition of MGL to MUC1 is carbohydrate mediated. FIG. 8B, in a second experiment, the tumor-associated MUC1 were coated on fluorescent beads coupled with MUC1 antibodies. Fluorescent MUC1-coupled beads were added to MGL-expressing CHO cells and untransfected CHO cells.
# This experiment is depicted in FIG. 8 of Example 2. In FIG. 8A, MUC1 was harvested out of the supernatant of cultured ZR75 tumor cells and coated on ELISA plates. Both MGLFc and DC-SIGNFc were used to look for carbohydrate-binding epitopes expressed on tumor-associated MUC1. […] Furthermore, EGTA, which inhibits lectin binding to carbohydrates, illustrates that the recognition of MGL to MUC1 is mediated by the expression of carbohydrates.
# [2] = biological target: T2, MUC1 on transfected CHO cells (UniProt P15941 24-1255, limits assumed); experiment: flow cytometry: MGL-Fc 0.5 µg/ml on CHO-MUC1 and parental CHO cells
# T2 construct: whole, on cells; also called CHO-MUC1
# Description: Chinese hamster ovary cells (CHO) cells and CHO cells transfected with MUC1 were incubated with MGL-Fc (0.5 μg/ml) in Tris-sodium buffer for 30 minutes at room temperature. The cells were washed and further incubated with FITC-labeled goat anti-human IgG (Jackson Laboratories) for 30 minutes. Binding was analyzed by flow cytometry.
# CHO cells were transfected with the MUC1 protein and binding of MGL-Fc to these cells to MGL was measured by flow cytometry. MGL-Fc specifically interacted with MUC1 transfected into CHO cells, whereas parental cells are not bound (Example 8, FIG. 1A). Next, dexamethasone-treated DC were incubated in the presence of CHO cells or CHO cells expressing MUC1.
# CD45RO from human PBL = biological target: T3, CD45RO from human PBL (human, UniProt P08575-4 26-1145); experiment: ELISA: MGL-Fc-coated plate, PBL lysate, detection with anti-CD45RO; '-' = no binding
# T3 construct: Probed with anti-CD45RO after capture on MGL-Fc
# T3 sequence (looked up): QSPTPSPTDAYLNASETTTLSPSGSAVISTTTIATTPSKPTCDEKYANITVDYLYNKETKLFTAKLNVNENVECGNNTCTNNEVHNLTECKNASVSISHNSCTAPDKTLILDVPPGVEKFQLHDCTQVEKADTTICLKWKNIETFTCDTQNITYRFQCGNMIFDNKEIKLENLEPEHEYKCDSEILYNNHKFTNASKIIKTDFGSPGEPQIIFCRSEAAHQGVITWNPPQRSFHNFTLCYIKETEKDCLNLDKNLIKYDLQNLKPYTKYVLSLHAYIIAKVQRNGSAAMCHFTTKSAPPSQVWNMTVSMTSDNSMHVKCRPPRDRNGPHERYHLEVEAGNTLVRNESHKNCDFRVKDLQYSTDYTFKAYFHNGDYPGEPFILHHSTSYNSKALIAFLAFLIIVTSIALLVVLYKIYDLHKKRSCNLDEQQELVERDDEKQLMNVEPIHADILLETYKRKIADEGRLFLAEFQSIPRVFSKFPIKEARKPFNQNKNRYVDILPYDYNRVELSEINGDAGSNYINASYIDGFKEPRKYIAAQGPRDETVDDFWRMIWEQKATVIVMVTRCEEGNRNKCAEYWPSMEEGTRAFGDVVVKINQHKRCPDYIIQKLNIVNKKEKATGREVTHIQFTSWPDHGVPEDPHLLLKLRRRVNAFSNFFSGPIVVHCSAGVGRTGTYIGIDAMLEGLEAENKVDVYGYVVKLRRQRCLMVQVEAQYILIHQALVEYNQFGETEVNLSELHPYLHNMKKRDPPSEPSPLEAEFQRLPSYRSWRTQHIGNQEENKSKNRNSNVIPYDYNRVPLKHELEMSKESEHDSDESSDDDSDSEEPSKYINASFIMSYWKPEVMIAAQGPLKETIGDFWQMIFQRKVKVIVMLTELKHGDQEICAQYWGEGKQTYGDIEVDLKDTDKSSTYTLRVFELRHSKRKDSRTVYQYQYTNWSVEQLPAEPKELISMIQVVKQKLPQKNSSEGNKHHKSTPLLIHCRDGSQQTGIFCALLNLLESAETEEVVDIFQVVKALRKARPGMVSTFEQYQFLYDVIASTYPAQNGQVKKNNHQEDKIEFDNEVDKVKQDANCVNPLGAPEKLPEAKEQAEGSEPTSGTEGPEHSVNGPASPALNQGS
# Description: MGL-Fc ligand ELISA. NUNC maxisorb plates (Roskilde, Denmark) were coated with goat anti-human-Fc antibody (4 μg/ml for 1 hour at 37° C., Jackson), followed by a 1% BSA blocking step (30 minutes at 37° C.) and MGL-Fc (1 μg/ml for 1 hour at 37° C.). MGL-Fc coated plates were incubated overnight at 4° C. with cell lysates (10.10⁶ cells/ml for cell lines, 500.10⁶/ml for PBL). After extensive washing, 1 μg/ml monoclonal antibodies were added for 2 hours at room temperature. Binding was detected using a peroxidase-labeled goat anti-mouse antibody (Jackson).
binder,measurement,setting,value
B1,binding result,[1],binds
same,binding result,[2],binds
same,binding result,CD45RO from human PBL,no binding
